In PMC4336329 (PLoS ONE, 2015):
Among all 310,000 compounds or so, about 2,200 (0.71%) showed an effect of 50% or more. Effects have a minus sign here. The list shows a part of the results.

Biological target: human ether-à-go-go-related gene (hERG) potassium channel (human, UniProt Q12809)
Test: primary screen, population patch clamp on CHO cells stably expressing hERG

Sequence of human ether-à-go-go-related gene (hERG) potassium channel (Q12809 whole entry, looked up): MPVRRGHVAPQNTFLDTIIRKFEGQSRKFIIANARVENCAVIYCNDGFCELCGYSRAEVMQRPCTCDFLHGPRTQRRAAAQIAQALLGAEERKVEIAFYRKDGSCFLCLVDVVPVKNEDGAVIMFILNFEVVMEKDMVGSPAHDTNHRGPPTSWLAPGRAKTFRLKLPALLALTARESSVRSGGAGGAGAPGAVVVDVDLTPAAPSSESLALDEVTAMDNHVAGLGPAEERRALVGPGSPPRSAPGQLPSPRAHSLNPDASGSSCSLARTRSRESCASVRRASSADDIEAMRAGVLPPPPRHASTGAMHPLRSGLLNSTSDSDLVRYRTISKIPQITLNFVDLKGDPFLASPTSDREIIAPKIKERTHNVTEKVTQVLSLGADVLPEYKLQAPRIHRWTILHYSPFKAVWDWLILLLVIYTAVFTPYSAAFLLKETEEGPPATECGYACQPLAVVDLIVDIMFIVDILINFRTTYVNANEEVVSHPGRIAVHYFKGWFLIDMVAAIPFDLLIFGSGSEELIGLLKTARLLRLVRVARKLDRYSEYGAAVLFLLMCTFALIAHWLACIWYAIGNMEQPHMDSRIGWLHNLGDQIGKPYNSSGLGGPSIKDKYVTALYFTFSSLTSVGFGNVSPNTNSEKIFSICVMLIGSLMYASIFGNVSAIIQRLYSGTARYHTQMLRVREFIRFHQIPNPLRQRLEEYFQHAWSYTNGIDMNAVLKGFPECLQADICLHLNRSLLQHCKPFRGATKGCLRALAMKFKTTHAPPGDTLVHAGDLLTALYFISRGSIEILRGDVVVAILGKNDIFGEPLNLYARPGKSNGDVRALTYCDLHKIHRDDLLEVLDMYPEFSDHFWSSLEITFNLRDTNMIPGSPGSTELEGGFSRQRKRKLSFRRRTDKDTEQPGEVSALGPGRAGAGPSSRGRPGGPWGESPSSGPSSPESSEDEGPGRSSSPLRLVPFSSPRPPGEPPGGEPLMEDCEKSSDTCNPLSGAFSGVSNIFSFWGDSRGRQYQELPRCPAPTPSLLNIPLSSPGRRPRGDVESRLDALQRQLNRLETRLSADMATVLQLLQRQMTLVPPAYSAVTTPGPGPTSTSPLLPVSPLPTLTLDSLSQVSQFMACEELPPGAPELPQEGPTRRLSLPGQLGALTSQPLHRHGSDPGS

| SMILES | hERG current change (%, negative = inhibition) at 1uM [%] |
| --- | --- |
| CCC(NC(=O)Cc1c(C)c2c(cc(C)c3c(C)c(C)oc32)oc1=O)C(=O)O (stereo not drawn) | 10.5 |
| Cc1ccc(CNC(=O)c2ccc(N3CCC4(CC3)CC(c3ccccc3)=NO4)c(NC(=O)c3ccc(Br)cc3)c2)cc1 | 20.9 |
| COCCNC(=O)C(OC(=O)C1=Cc2ccccc2OC1)C(C)C (stereo not drawn) | 12 |
| CCOC(=O)N1CCC(NC(=O)c2ccc3c(c2)N=C(CC)c2cc(C)ccc2S3)CC1 | 12 |
| CCN(c1cccc(C)c1)S(=O)(=O)c1ccc2[nH]c(=O)c(=O)[nH]c2c1 | -3.15 |
| Cc1ccc(-n2c(C)nc3ncnc(-c4ccccc4)c32)cc1 | 8.56 |
| CC(=O)CCc1c(C)c2cc(C)ccc2[nH]c1=O | 0.299 |
| COCCNC(=O)COc1ccc(N(C)S(=O)(=O)c2ccc3ccccc3c2)cc1 | 3.32 |
| CS(=O)(=O)N(Cc1ccccc1)c1ccc(C(=O)N2CCc3ccccc3C2)cc1 | 3.66 |
| COc1cccc(C(C(=O)NC2CCCC2)N(CCC(C)C)C(=O)CCC(=O)Nc2cc(C)on2)c1 (stereo not drawn) | -4.96 |
| CC(C)n1c(C(F)(F)F)nc2cc(C(=O)N3CCOCC3)ccc21 | 8.44 |
| COc1ccc(C(=O)/C=C/c2ccc(N3CCCCC3)c([N+](=O)[O-])c2)c(OC)c1 | 7.9 |
| Fc1ccccc1CSc1ncnc2sc3c(c12)CCCC3 | 8.62 |
| CC(=O)Nc1ccc(S(=O)(=O)N2CCC(C(=O)NCCc3ccc(Cl)cc3)CC2)cc1 | 7.33 |
| COC(=O)c1nc(NC(=O)C(C)C)n[nH]1 | -7.19 |
| CC1CCc2c(sc(NC(=O)CSc3ncn[nH]3)c2C#N)C1 (stereo not drawn) | 15.7 |
| CCOC(=O)[C@H]1[C@H]2COc3ccc(Cl)cc3[C@@H]2N2C(=O)CN(CC3CCCO3)C(=O)[C@@]12C (stereo partly drawn) | 15.6 |
| COc1ccc(NC(=S)N(CCCN2CCN(C)CC2)Cc2cccs2)cc1 | -14 |
| CC1SC(c2ccc(F)cc2)N(CCc2ccccc2)C1=O (stereo not drawn) | 10.1 |
| COc1cc(C(=O)N2CCCC(c3nc(-c4cccs4)no3)C2)cc(OC)c1OC (stereo not drawn) | 1.54 |
| Cc1ccc(F)c([C@H]2C3C=CCC(c4ccccc4)C3C(=O)N2Cc2ccccc2)c1 (stereo partly drawn) | 12.4 |
| CC(=O)c1c(O)cc(O)c(C(C)=O)c1O | 6.85 |

| SMILES | hERG current change (%, negative = inhibition) at 1uM [%] |
| --- | --- |
| CCOC(=O)NC(=O)/C(C#N)=N/Nc1c(F)cccc1F | 7.05 |
| O=C(CCc1nc2ccccc2s1)Nc1cccnc1 | -0.146 |
| Cc1oc(-c2cccs2)nc1CS(=O)CC(=O)NCCc1ccccc1 (stereo not drawn) | 1.54 |
| CN(CC(=O)Nc1ccccc1Br)C(=O)c1cccn1C | 15.4 |
| CC(OC(=O)C(C)N1C(=O)C2C3C=CC(C4CC34)C2C1=O)C(=O)c1ccccc1 (stereo not drawn) | 12.4 |
| CCCCN=c1scc(-c2ccc3c(c2)NC(=O)CO3)n1N=C1CCCC1 | 17.1 |
| COC(=O)N/N=C/c1ccc(OC(=O)c2ccco2)c(OC)c1 | 21.5 |
| CCN1CCC(NC(=O)Nc2ccc(F)cc2)CC1 | 5.72 |
| Cc1cc(NC(=O)COC(=O)CCS(=O)(=O)c2cc(Cl)ccc2Cl)no1 | 16.3 |
| O=C(Nc1nncs1)c1cccc(S(=O)(=O)N2CCOCC2)c1 | 2.43 |
| O=C(Nc1cc2c(cc1Br)OCCCO2)c1cccnc1 | 3.19 |
| CCOC(=O)c1sc2nc(N3CCOCC3)c3c(c2c1N)CC(C(C)C)OC3 (stereo not drawn) | 7.72 |
| C=CCNC(=O)CN1C(=O)c2cccc3cccc1c23 | 4.05 |
| Cc1cc(C)nc(NC(=O)/C=C/c2ccccc2Cl)c1 | 22.1 |
| O=C(COc1ccc2c(-c3ccccc3)cc(=O)oc2c1)N[C@@H](Cc1c[nH]c2ccc(O)cc12)C(=O)O | 14.2 |
| COc1ccc(C(=O)n2nc(-c3ccc(C)cc3)nc2N)cc1OC | 10.8 |
| CC1CCCN(S(=O)(=O)c2ccc3c(c2)C(C)(C)C(=O)N3C)C1 (stereo not drawn) | 10.3 |
| Fc1ccc(CO/N=C2\CCCc3nonc32)cc1 | -7.13 |
| CC(C)(C)NC(=O)CSc1nnc(NC(=O)c2ccccc2Cl)s1 | 8.52 |
| CC(C)Cc1csc(NC(=O)c2ccc(Br)cc2)c1C(=O)O | 15.5 |
| COc1ccccc1N1CCN(/N=C/c2ccc([N+](=O)[O-])cc2)CC1 | 9.01 |
| CCC(C)N=C1CC(C)(C)CC(=O)/C1=C(/O)Cc1ccccc1 (stereo not drawn) | 5.75 |

| SMILES | hERG current change (%, negative = inhibition) at 1uM [%] |
| --- | --- |
| O=C(CNC(=O)c1cc2ccccc2o1)NCc1cccs1 | 15.4 |
| CNC(=O)N(O)C1N(/N=C/c2ccc(SC)cc2)C(=S)SC1(C)C (stereo not drawn) | 18.6 |
| CCN(CC)c1ccc(/C=N/NC(=O)Cc2cccs2)c(O)c1 | 13 |
| Cc1ccc([N+](=O)[O-])cc1S(=O)(=O)N1CCC(C)CC1 | 24 |
| Cc1[nH]nc(SCC(=O)NCC(C)C)c1[N+](=O)[O-] | 9.93 |
| Cc1csc(CN(C)C(=O)CC2C(=O)NCCN2Cc2ccc(F)cc2Cl)n1 (stereo not drawn) | -0.193 |
| Cc1ccc(NC(=O)c2ccc3nc[nH]c3c2)cc1C | -3.57 |
| O=C(Nc1ccc2c(c1)CCCN2C(=O)c1cccs1)c1c(F)cccc1F | 19.6 |
| CC(=O)Nc1cccc(-c2nnc(SCC(=O)n3c4c(c5ccccc53)CCCC4)n2C)c1 | 9.09 |
| COc1ccccc1-c1cc(C(=O)N2CCOCC2)no1 | 16.7 |
| COc1ccc(Cn2c(C(C)C)nc3sc4ccccc4c(=O)c3c2=O)cc1 | 13.7 |
| Cc1ccc(Cl)c(OCC(=O)OC(C)C(=O)NC2CC2)c1 (stereo not drawn) | 12.6 |
| Nc1ccc(S(=O)(=O)N2CCc3ccccc32)cc1 | 9.7 |
| CN(C)c1ccc(C(CNS(=O)(=O)c2cccc([N+](=O)[O-])c2)N2CCOCC2)cc1 (stereo not drawn) | 7.55 |
| CC(=O)Nc1ccc(NC(=O)Cn2c(=O)n(-c3ccccc3)c(=O)c3oc4ccccc4c32)cc1 | -1.05 |
| COc1cc(C(=O)Nc2ccc(-n3cnnn3)c(C)c2)cc(OC)c1OC | 10.8 |
| COc1ccccc1C(=O)OCc1nc(N)nc(Nc2ccccc2C)n1 | 6.99 |
| CN(C)c1ccnc2sc(C(=O)NCc3ccccc3)c(N)c12 | -20.7 |
| CCOc1cc2c(cc1OCC)-n1cccc1C(c1ccc(F)c(OC)c1)NC2.Cl (stereo not drawn) | 7.9 |
| Cc1[nH]nc(Sc2ccccn2)c1[N+](=O)[O-] | 5.84 |
| C#CCOCCOCCOCCNc1nc(N2CCN(C(=O)Cn3cc(CCCC[NH3+])nn3)CC2)nc(N2CCN(C(=O)[C@H](CCCC[NH3+])n3cc(CCCC)nn3)CC2)n1.[Cl-] | 8.76 |
| CCOc1ccc2nc(SC3CC(=O)N(c4ccc(OC)cc4)C3=O)sc2c1 (stereo not drawn) | 6.56 |

| SMILES | hERG current change (%, negative = inhibition) at 1uM [%] |
| --- | --- |
| Cc1cc(C)c(S(=O)(=O)c2ccccc2C)c(OCCO)n1 | 3.05 |
| CCOc1ccc(NC(=O)c2cccc(OC(=S)N3CCC(C)CC3)c2)cc1 | 6.81 |
| O=C(NC(c1ccccc1)c1ccccc1)N1CCN(CCO)CC1 | 5.24 |
| CCOC(=O)c1c(C)[nH]c(C)c1C(=O)COC(=O)c1sccc1C | 7.05 |
| Cc1cc(C)n(C(=O)c2cc([N+](=O)[O-])cc([N+](=O)[O-])c2)n1 | 12.1 |
| Cc1cc(C(=O)NC2CCCC2)on1 | 0.83 |
| O=C(c1ccc(Cl)c(S(=O)(=O)N2CCCC2)c1)N1CCN(c2ccccc2F)CC1 | 5.8 |
| O=C(Oc1oc(-c2ccco2)nc1C=Nc1ccccc1)c1ccoc1 | 18.5 |
| CCOC(=O)c1sc(N2C(=O)C(O)=C(C(=O)c3ccco3)C2c2ccc(C)o2)nc1C (stereo not drawn) | 11.9 |
| COc1ccc(OC)c(C2C3=C(COC3=O)Nc3cc4c(cc32)OCO4)c1 (stereo not drawn) | 10.1 |
| COCC(C)n1c(C)cc(C(=O)COC(=O)c2ccc3c(c2)NC(=O)CS3)c1C (stereo not drawn) | 12.2 |
| CC(NC(=O)C1CCC(CNc2c(N3CCCCC3)c(=O)c2=O)CC1)c1ccccc1 (stereo not drawn) | 5.36 |
| CCn1cc(/C=N/NC(=O)c2ccc3c(c2)OCO3)c(C)n1 | 14.1 |
| c1ccc(-c2noc(CSc3nnnn3C3CCCCC3)n2)cc1 | 3.01 |
| COc1ccccc1NC(=O)C1=C(C)NC(=O)NC1c1ccc(C)cc1 (stereo not drawn) | 5.77 |
| CCn1c(SCC(=O)N2CCCCC2)nc2c(c1=O)SCC2 | 12 |
| Cc1cc(=O)oc2c(C)c(OCC(=O)NCCCN3CCOCC3)ccc12 | 18.6 |
| COc1ccc(OC)c(S(=O)(=O)N2CCC(C(=O)N3CCN(c4ccc(F)cc4)CC3)CC2)c1 | -19.8 |
| Cc1noc(C)c1C(=O)OCC(=O)Nc1ccccc1SCC#N | -0.938 |
| CSc1nc(Cc2ccc(Cl)cc2)nc2ccccc12 | 6.83 |
| Cn1c(=O)c2[nH]c(N3CCOCC3)nc2n(-c2ccccc2)c1=O | 13.6 |
